# From the supplement of paper PMC3334620
# Over roughly 33,000 sequences, “E-score (-0.5 to 0.5)” has its median near -0.012; the highest 2% begin near 0.29. The list shows a part of the results.
# Target: T1, Ybr033w (UniProt P38073)
# T1 sequence: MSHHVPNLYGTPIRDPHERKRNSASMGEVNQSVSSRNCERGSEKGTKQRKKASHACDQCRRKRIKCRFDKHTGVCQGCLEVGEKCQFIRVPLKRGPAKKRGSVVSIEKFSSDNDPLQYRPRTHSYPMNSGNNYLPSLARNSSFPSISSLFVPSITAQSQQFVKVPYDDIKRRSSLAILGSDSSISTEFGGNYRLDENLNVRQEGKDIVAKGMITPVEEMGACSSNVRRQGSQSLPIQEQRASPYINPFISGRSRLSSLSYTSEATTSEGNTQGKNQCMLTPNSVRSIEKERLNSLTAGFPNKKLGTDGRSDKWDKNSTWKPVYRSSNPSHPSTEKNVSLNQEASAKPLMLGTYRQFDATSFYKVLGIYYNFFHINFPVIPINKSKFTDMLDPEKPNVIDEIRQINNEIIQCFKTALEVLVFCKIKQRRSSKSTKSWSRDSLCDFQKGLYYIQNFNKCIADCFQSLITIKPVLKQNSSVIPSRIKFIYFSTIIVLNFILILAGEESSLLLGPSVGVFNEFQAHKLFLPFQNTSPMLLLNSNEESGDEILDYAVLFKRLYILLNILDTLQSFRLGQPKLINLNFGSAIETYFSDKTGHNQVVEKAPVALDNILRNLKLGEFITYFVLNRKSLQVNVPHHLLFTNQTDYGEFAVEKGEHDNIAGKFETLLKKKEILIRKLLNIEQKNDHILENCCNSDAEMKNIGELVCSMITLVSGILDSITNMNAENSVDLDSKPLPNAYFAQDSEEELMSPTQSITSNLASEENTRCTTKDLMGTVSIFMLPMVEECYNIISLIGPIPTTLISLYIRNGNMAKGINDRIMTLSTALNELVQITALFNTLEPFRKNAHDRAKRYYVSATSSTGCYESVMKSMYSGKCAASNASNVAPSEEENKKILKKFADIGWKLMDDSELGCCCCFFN
# Experiment: PBM E-score (8-mer binding enrichment) (E-score (-0.5 to 0.5)); higher = stronger / more preferred TF binding; most listed sequences are background and not binding sites
# Conditions: protein concentration: 200 nM; construct: GST-full length
# Outline: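 GST-tagged yeast TFs (full-length or DNA-binding domain) were made by PURExpress in vitro transcription/translation and applied at about 100-200 nM to universal all-10-mer Agilent arrays. The arrays were made double-stranded by primer extension, on fresh or once-stripped slides. Bound protein was detected with fluorescent anti-GST, and scans were normalised with masliner. Each ungapped eight-base word, pooled with its reverse complement, received an E-score (modified Wilcoxon-Mann-Whitney statistic) from the Universal PBM Analysis Suite.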
row,Sequence,PBM E-score
1,AACAGGAA,0.107
2,CATCTGTC,-0.235
3,CCCAAATC,0.0208
4,CCAGTCCA,-0.173
5,GGAGCGCC,-0.27
6,CCTCCGAC,-0.349
7,CCACTACC,-0.149
8,CTAACACA,0.198
9,CCCGAGCC,-0.145
10,ATGTTAGA,0.0352
11,CTATTATA,0.125
12,AAGCACTA,0.111
13,TATTGGCA,0.0828
14,CACTAGGA,-0.129
15,GCTCCTTA,0.0831
16,AACTACGA,0.111
17,TCGCCCCA,-0.239
18,CTCGACCC,-0.281
19,TATCTGAA,0.14
20,AAGACGGA,0.0226
21,AATTTCGA,0.0715
22,ATAGGAGC,-0.187
23,GAAGAGAA,0.155
24,CTAGACAC,0.00532
25,GTAGATTA,0.216

row,Sequence,PBM E-score
1,TGCAGGAA,0.0984
2,AAAAACCG,0.134
3,ATAGGCTA,-0.0312
4,CCTAATTC,0.145
5,GGACCCCA,-0.177
6,ACCTCTAC,0.04
7,CGGTGCAG,-0.204
8,GAGAGGTA,-0.223
9,CAACTTTC,0.024
10,GTTAACAA,0.0731
11,AACAGTTC,0.107
12,CTCTTTGC,-0.202
13,GCCTCCGC,-0.146
14,ACTCGACG,0.104
15,CCTCGGAC,-0.165
16,GCGCCAAA,-0.031
17,GTCGCACA,-0.0673
18,CCGATTAA,0.154
19,GCCGTCCC,-0.219
20,CGTAACCC,-0.0532
21,AATACTTC,0.21
22,CATTGTCC,0.0695
23,ACATCGTC,-0.0688
24,AGTAAACG,0.0923
25,CAAATCAC,-0.035

row,Sequence,PBM E-score
1,AGATGCCT,0.0174
2,CGATGAAA,-0.00643
3,CATATGGG,-0.0459
4,GACACCCC,-0.269
5,AGGACAGC,-0.0246
6,CACTAACC,0.0389
7,ACAAGTGA,0.0353
8,CGAAGTGA,-0.0303
9,AAGACGAT,0.0718
10,ATGAGCAA,0.161
11,GCGTACTA,-0.0448
12,AGCGCGCC,-0.186
13,AGGGACCA,-0.251
14,AGTCTACC,-0.035
15,ACTGTTAG,-0.00766
16,GCTCCGCC,-0.0466
17,GCACGAGC,-0.195
18,ACGTTCGG,-0.0866
19,AGAAACAT,0.2
20,GCATAGAC,-0.156
21,CTCAACTC,0.0995
22,AGAAACTC,0.179
23,CCGGTCAC,-0.258
24,CCAACGGA,-0.233
25,ACCATCGG,-0.118

row,Sequence,PBM E-score
1,AGCGCACT,-0.155
2,ATACAGGA,-0.0061
3,GCTACTCA,0.149
4,AACGATCT,0.00325
5,ACCGCGTA,-0.0911
6,ATTCAGCA,0.114
7,CTTTTCAA,0.22
8,CAAAGAGC,-0.165
9,GGAGCCCC,-0.358
10,GAAAATAC,0.252
11,TGCCCCAA,-0.0984
12,CGTAGACA,-0.208
13,GAGGTTAC,-0.0615
14,CCTTGTGC,-0.278
15,CGCCGAGC,-0.0974
16,CCGTAAAG,0.0143
17,AAATCATG,0.167
18,CTGGTGGA,-0.0887
19,GGCGCCCA,-0.0169
20,CTAAATGC,0.0943
21,GGGGGAAA,-0.124
22,AAAGGGAA,0.0211
23,CAGTATAC,0.0935
24,AACGAATG,0.16
25,CGGGGTTC,-0.137

row,Sequence,PBM E-score
1,CAAATACG,-0.0196
2,ATCCGAGG,0.0509
3,AGGTTGCA,0.112
4,CAGGCCAG,-0.142
5,CCAGGAGG,-0.024
6,AAATCGAA,0.0838
7,CAGACAAG,-0.0449
8,GATGGTTA,-0.0287
9,ATTAGAAG,0.123
10,CAACAGAA,0.0731
11,AAAGGTAC,-0.00741
12,AATCGATG,0.217
13,CATGTCAC,0.0223
14,ATACTGAG,0.267
15,TCCCCCGA,-0.23
16,CCAAAATA,0.182
17,ATGCGAAG,0.0252
18,AACATGCC,-0.008
19,ATTACCAA,0.116
20,CCGCTACA,-0.113
21,GCAAGTCC,-0.1
22,CTCGGGCA,0.0151
23,ATGACTCC,0.0591
24,CGAGCCGA,-0.0277
25,AGACCATA,0.0684

row,Sequence,PBM E-score
1,CTTAGTGA,-0.00553
2,GGTACCCA,-0.221
3,AAGGGCCG,-0.287
4,AGCAGCCA,-0.0655
5,TAATGTAA,0.239
6,AGAAACCC,0.0994
7,CCCTGAAG,-0.268
8,GACTTGAA,-0.00018
9,CTCTCCTC,-0.269
10,ACCCGCGG,-0.055
11,CGTTCTAC,0.00885
12,AGAAAGCC,-0.0566
13,AAAGGGAT,0.17
14,AGCCTCGA,-0.185
15,GCTTACAA,0.0503
16,AGTCACCG,-0.104
17,TACCCGCA,0.232
18,CAATGGAG,-0.0219
19,CAAGAAAA,0.219
20,CGGTGGAC,-0.22
21,CCTCCTCC,-0.152
22,GATGTGAC,-0.183
23,GATCGATC,-0.205
24,CACTCGAG,-0.0246
25,GACATGGA,0.112

row,Sequence,PBM E-score
1,CCTGGAGA,-0.0423
2,CCCTGGGA,-0.336
3,CAACTACA,0.213
4,ATGTACCA,0.0232
5,GCCAGCCA,-0.265
6,CGTGGTAG,-0.0476
7,AAATCCGA,0.12
8,GTGACCTA,-0.0959
9,CGCTGATC,-0.00384
10,CCCCATAC,-0.187
11,CCTTGTAC,0.0941
12,AGTTTTGG,0.191
13,AGCTCAGG,-0.00046
14,CATCCAGG,-0.088
15,GGAACCAC,-0.0152
16,AGCGTATA,0.0836
17,AAGCCGGC,-0.221
18,CACTATAA,0.167
19,ATATACTC,0.197
20,AGCAATTG,0.025
21,ACGCAGCT,-0.095
22,GCGGTCTA,-0.0156
